This is an account of results in the supplement of paper PMC11417369.

Some of the results follow.

The test system of the assay is PfAP2-HC AP2 domain (GST-tagged). Description: gcPBM binding intensity (ln(normalized median fluorescence intensity)); higher = stronger DNA binding. The method, boiled down:
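The highest Masliner-normalised natural-log median intensity across replicate spots of either probe orientation is reported as binding intensity. GST-tagged P. falciparum DNA-binding domains expressed in E. coli were applied for 1 h to an Agilent 4 × 180k array of primer-extended double-stranded 36-bp intergenic genomic probes plus negative controls, and bound protein was detected with Alexa488 anti-GST antibody and scanned at 488 nm.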
For the sequence “AAAAGTACAATATATATGTATGTGTATAGAATGGTT [TGCATGCA_negctrl_site76]”, the “gcPBM binding intensity (ln)” value was 9.95. For “TACAATTTGATATATACACACAAATAAATTATGCTT [CACACA_site6534]”, the “gcPBM binding intensity (ln)” value was 9.71.

With “ATAATATTATACTTTGCACACATCTGAAATGACATA [CACACA_site3952]”, the “gcPBM binding intensity (ln)” value came to 9.79. Next, “AAAGAATTTAAATATTGTACGCAATATATAAAAAAA [XGTACX_site7616]”: 9.64; “TAATATTATTATTTTACACACTTTTTTCCTTTTATC [CACACA_site2457]”: 9.88.

Consider “TTCTATATATATATAGACAAACGATAAAATAAAAAA [GTGCAC_negctrl_site142]”, for which the “gcPBM binding intensity (ln)” value stood at 9.48. Next, “TAATAATAGTGAGAGTGTACTTTAAATAAAATATAT [XGTACX_site2850]”: 9.73; “GATGTTCATCACTACACACACAAAGAAATATAAATA [CACACA_site7294]”: 10.1; “TACCCAAAGTTACATACACACTAATATTTACACCAT [CACACA_site4709]”: 9.92. The result for “ATATGAAGTTATATAGTGCACATGTACAACCAAATC [GTGCAC_site9974]” reads 9.91; that for “AGAAAAGAAATTAGTTGTACTCTGATGAATTATCCT [XGTACX_site6284]”, 9.5.

Regarding “ATATATTTTTTGAATACACACATATTATAGGTAATA [CACACA_site6709]”, the “gcPBM binding intensity (ln)” value was 9.63. In the case of “CGTATAAATATACGTGCATGTAACTTTTTCTATATT [TGCATGCA_site981]”, the “gcPBM binding intensity (ln)” value worked out at 9.74.

On to “CTATTTATTTTTGATGCATGCCAAATATAGAAAAAA [TGCATGCA_site368]”, for which the “gcPBM binding intensity (ln)” value was 9.31. For the sequence “TAGTAGTTATCACTAACATGCAATAATATTATTTAA [TGCATGCA_site161]”, the “gcPBM binding intensity (ln)” value was found to be 9.61. The result for “TGACTGTAGATATTTTGTACATAACCTAATATATAT [XGTACX_site970]” reads 9.71; that for TACAGTTCAATGAAGGTGCAATTAATATATAAAATA, 9.62. The result for “ATAATATAATACGAAGGTACACATTTTCTTAATATA [XGTACX_site7947]” reads 9.63.

“TTATGTACAATTTCTTCTTTCTTTTTTCCTAAAGAC [CACACA_negctrl_site1193]”: the “gcPBM binding intensity (ln)” value came to 9.34. In the case of “ATAACATATATATATACACACACATATATATATGAA [CACACA_site7983]”, the “gcPBM binding intensity (ln)” value is 9.98. Next, “TTTTTTTTTTTTTTTTGTACACATAATATGAATAAT [XGTACX_site2661]”: 9.34. Regarding “TTTTTTTTTCTTTTCAAACACACAATTGGTATATAT [CACACA_site3321]”, the “gcPBM binding intensity (ln)” value amounted to 9.91. The result for “TCATTTCACAGACACACACACACAATATATTTCCTT [CACACA_site9295]” reads 10.8; that for “ATATTTTTATTAGTAGTGCAATTTAGTGTATATATA [GTGCAC_site9542]”, 9.56. The result for “AAAAAAAAAATTAAAACATGCATAAATAAATATATT [TGCATGCA_site866]” reads 9.66; that for “TATGTGTAATATTTTTGTACAGAAAAAAAAAAAAAA [XGTACX_site7075]”, 9.41. The result for “AAAAAAAAAAAAAACACACACATGCACATCATATTA [CACACA_site4467]” reads 10.2; that for “TATTACTATGTTATAACTTTTTTAAACGTGATCATA [TGCATGCA_negctrl_site128]”, 9.46; that for “AAAAAAAAAAAATATACACACTAATATATTTTTTTA [CACACA_site4604]”, 9.57. Turning to “TATTTAAAAAGAAAAAAAAAAAAAAAAATACATATA [CACACA_negctrl_site164]”, the “gcPBM binding intensity (ln)” value was determined as 9.44. Next, “TATTAAATTTATCGGAGTACATTTAAATGTATATAC [XGTACX_site7975]”: 9.53; “TGTATAAGTATTAATACACACACAAAATAATAAAAA [CACACA_site9156]”: 10.4.

As for “TACTTACATTATTTATTTATATAAAAAGTTAATTAT [XGTACX_negctrl_site433]”, the “gcPBM binding intensity (ln)” value is 9.46. Regarding “ATAATTAACAAATACACACACACACCCCCACAAAAA [CACACA_site518]”, the “gcPBM binding intensity (ln)” value worked out at 10.9.

As for “AGTATTCATAAAAATACACACATGGAAAAATAAACT [CACACA_site6796]”, the “gcPBM binding intensity (ln)” value is 10.

As to “AAATTAAAATATAATACACACATAAAAAAAAAAAAA [CACACA_site4183]”, the “gcPBM binding intensity (ln)” value is 10.2.

For “TATATATTTTTTTTTTGTACTCACAATATATGTATG [XGTACX_site8024]”, the “gcPBM binding intensity (ln)” value is 9.65. The result for “AATTTTTTATATGTCACACATTTATTATTATTATTA [CACACA_site4198]” reads 9.83; that for “TGTAATATAAAATTTTGTACTCAAAAATTTATATAT [XGTACX_site3252]”, 9.47; that for “ACTTATAAAAACATATACCCCATCGCATTTTTTCCA [XGTACX_negctrl_site177]”, 9.82. The result for “TTCCAAAAAGTTATTACACACATATGTGCACATATA [CACACA_site6465]” reads 9.87.

For “TTCCAAACCTCATTATGGAAAATAAAAAAATAAAAA [XGTACX_negctrl_site17]”, the “gcPBM binding intensity (ln)” value stood at 9.28. The result for “ATAAAATATTTTTGAACATGCAGGTAAAAAATAAAA [TGCATGCA_site1019]” reads 9.64; that for “AGAATATTATATTATGCATGCATATAGAAAAATATA [TGCATGCA_site302]”, 9.68; that for “TTTATTAGTAATTATACACACATATAAAATGAATAA [CACACA_site6754]”, 9.67. The result for “TATATTTATAGGTACACACACACATATAAATAAATA [CACACA_site6345]” reads 10.5. Next, “ATAAAATTATATTTTGCATGCAGGCCTTTTTCTTAA [TGCATGCA_site1030]”: 9.86; “AAAAAAAAAAAAAACACACACATATATATATATATA [CACACA_site1891]”: 10.4. Regarding “TAAAAAAAATAGTCAAGTACATAAGAAGGGAAGAAA [XGTACX_site8733]”, the “gcPBM binding intensity (ln)” value is 9.81. With “TTATTCATATTATCATGTACTTATATATATTGTCAT [XGTACX_site2231]”, the “gcPBM binding intensity (ln)” value is 9.8. As for “TTTAATTTTTTTAATTCACACATTATTCCATCCTTT [CACACA_site5480]”, the “gcPBM binding intensity (ln)” value is 9.69.

Take “AATAAATAAGCAACATGTACATACAAATATATACAT [XGTACX_site8529]”: the “gcPBM binding intensity (ln)” value was found to be 9.85. Next, “ATTTTCCATTGTGCTACACACAACGGTTCGCAATAA [CACACA_site2974]”: 9.76; “ATCTAATAAAAATACACACACATATGATTTGTGAAT [CACACA_site1867]”: 10.2. Next, “TTTTGTTTATTATGATTCAAAATGATTTTATCTTTG [TGCATGCA_negctrl_site425]”: 9.5; “TATTATATATATAAATGTACTTATTTTAATTCCCCT [XGTACX_site8638]”: 9.51. Next, “AAAAAAACATGAAACACACACAAATATTTATTTATA [CACACA_site6967]”: 10.2. Regarding “TCTTTTAAAAAAAAAGGAGGAACATAAAAAGTAGAA [XGTACX_negctrl_site272]”, the “gcPBM binding intensity (ln)” value is 9.63.

As for “ATATAATTAAAATGCTCACACACATAAAAAAAAATT [CACACA_site2148]”, the “gcPBM binding intensity (ln)” value is 10. As for “CACATATATATGTGTGCATGTTGTATTATATATTTA [TGCATGCA_site632]”, the “gcPBM binding intensity (ln)” value was found to be 10.2. Take “ATAATTACAAAATAAACACACATATAGATTTATATG [CACACA_site6343]”: the “gcPBM binding intensity (ln)” value came out at 10.1. “TACATAATACATATAACACACACAATTATACATAAA [CACACA_site9060]”: the “gcPBM binding intensity (ln)” value came to 10.4. Next, “ATTTTATTTTTTAAAGGTACAGTTACAGCTTATATA [XGTACX_site7513]”: 9.51; “GTACATATATACATTACACACGGTTTGATTTAAAAA [CACACA_site3379]”: 9.75. “ATATTTAAATGTAATACATGCAAATTTGAACATTTT [TGCATGCA_site736]”: the “gcPBM binding intensity (ln)” value was determined as 9.75. In the case of “TAATATATTAACATGGGTACATATTATTTCATGTGT [XGTACX_site5985]”, the “gcPBM binding intensity (ln)” value came out at 9.75. Next, “AAAAAAAAAAAAATCACACATATGTATTTATATATA [CACACA_site5790]”: 9.56.

“AACAAACACGGACACACACACACACTAGAATGATTA [CACACA_site5364]”: the “gcPBM binding intensity (ln)” value was found to be 10.7. Next, “AAAAATTTAAGTGGGGGTACATTTTTTTAACACCTT [XGTACX_site1093]”: 9.88. Next, “TAAAAATGTGGACACACACACATATTTATATTTAAT [CACACA_site6827]”: 10.1. Next, “TTTTACAAAATAAAAATATAGAATACGGTAAATTAT [GTGCAC_negctrl_site40]”: 9.56. On to “TGTTGATGATATTACACACCCAATGAGAAAAGGAAT [CACACA_site2072]”, for which the “gcPBM binding intensity (ln)” value is 9.81. Next, “AAATAAGAGCGTAGCACACACGCATTTTATAAATGT [CACACA_site741]”: 9.87; “TATCATTTTATTATTCTACACACTTATCTATAATTA [CACACA_site7894]”: 9.88; “TTTTTTTTTTTTTTTGCATGTTGTTTAATGTATTGT [TGCATGCA_site772]”: 9.39. Next, “AAATATTTTTTTTCTACACACATACAAATATAGATT [CACACA_site7164]”: 9.73.

On to “ATGCCCCATATAAACACACAAATAAAAAGAATATAC [CACACA_site7292]”, for which the “gcPBM binding intensity (ln)” value was determined as 10.2. Next, “ATATTTAAAGAATAAGTGCAAAATGTAATTAATTTT [GTGCAC_site9901]”: 9.7. The result for “TATATTTTATAAAAAAGTACACATGAAAATGTATTT [XGTACX_site5889]” reads 9.49; that for “TGTAGTCTGGAGAAACGTACACAGTATCTGGTAACA [XGTACX_site4938]”, 9.48; that for “AAAGGGGATATATGAACACACAAAAAAAAAATATAT [CACACA_site2896]”, 9.88. The result for “TATTTATTACTATGTAAACACACATGCAATATATGT [CACACA_site8288]” reads 9.88; that for “TTTTTTCCTTTTAATTGTACACAGATATAATATATT [XGTACX_site2230]”, 9.63; that for “AAATTTTATTATAGCAGTACAATATAATATTATTAA [XGTACX_site1971]”, 9.44. Regarding “TGGTATGTTTTACAAAGTACCCATCGATTCTTATGT [XGTACX_site2822]”, the “gcPBM binding intensity (ln)” value came to 9.61.

“GTACTCTTCTCCAGACTGCACTATACGACTCGTACA [GTGCAC_site9770]”: the “gcPBM binding intensity (ln)” value was 9.75.

In the case of “ATATATATATATATATGTACTTATATATAATATAGA [XGTACX_site3488]”, the “gcPBM binding intensity (ln)” value worked out at 9.57. Consider “ATTACATACACGCGCACACACAAAAAAAAAAAAAAA [CACACA_site1334]”, for which the “gcPBM binding intensity (ln)” value is 9.98.
